# According to PubChem BioAssay AID1347165 (National Center for Advancing Translational Sciences (NCATS), 2019):
# Among all 220,000 compounds or so, about 5,700 (2.6%) were called active. This list was built around the results that the source calls inconclusive (neither active nor inactive); the mix of calls is not that of the screen. The call rests on the fitted dose curve; in most records, active means well fitted inhibition curve with a large enough effect; inconclusive means small, poorly fitted or top-dose-only effect; inactive means no such curve, though single readings can be large or run the other way. Potencies beside an inconclusive call are fits to weak or partial responses and may not hold up.
# Molecular target: Lysine-specific demethylase 5B (Homo sapiens) (UniProt Q9UGL1)
# Sequence of UniProt Q9UGL1 (Q9UGL1 whole entry, looked up): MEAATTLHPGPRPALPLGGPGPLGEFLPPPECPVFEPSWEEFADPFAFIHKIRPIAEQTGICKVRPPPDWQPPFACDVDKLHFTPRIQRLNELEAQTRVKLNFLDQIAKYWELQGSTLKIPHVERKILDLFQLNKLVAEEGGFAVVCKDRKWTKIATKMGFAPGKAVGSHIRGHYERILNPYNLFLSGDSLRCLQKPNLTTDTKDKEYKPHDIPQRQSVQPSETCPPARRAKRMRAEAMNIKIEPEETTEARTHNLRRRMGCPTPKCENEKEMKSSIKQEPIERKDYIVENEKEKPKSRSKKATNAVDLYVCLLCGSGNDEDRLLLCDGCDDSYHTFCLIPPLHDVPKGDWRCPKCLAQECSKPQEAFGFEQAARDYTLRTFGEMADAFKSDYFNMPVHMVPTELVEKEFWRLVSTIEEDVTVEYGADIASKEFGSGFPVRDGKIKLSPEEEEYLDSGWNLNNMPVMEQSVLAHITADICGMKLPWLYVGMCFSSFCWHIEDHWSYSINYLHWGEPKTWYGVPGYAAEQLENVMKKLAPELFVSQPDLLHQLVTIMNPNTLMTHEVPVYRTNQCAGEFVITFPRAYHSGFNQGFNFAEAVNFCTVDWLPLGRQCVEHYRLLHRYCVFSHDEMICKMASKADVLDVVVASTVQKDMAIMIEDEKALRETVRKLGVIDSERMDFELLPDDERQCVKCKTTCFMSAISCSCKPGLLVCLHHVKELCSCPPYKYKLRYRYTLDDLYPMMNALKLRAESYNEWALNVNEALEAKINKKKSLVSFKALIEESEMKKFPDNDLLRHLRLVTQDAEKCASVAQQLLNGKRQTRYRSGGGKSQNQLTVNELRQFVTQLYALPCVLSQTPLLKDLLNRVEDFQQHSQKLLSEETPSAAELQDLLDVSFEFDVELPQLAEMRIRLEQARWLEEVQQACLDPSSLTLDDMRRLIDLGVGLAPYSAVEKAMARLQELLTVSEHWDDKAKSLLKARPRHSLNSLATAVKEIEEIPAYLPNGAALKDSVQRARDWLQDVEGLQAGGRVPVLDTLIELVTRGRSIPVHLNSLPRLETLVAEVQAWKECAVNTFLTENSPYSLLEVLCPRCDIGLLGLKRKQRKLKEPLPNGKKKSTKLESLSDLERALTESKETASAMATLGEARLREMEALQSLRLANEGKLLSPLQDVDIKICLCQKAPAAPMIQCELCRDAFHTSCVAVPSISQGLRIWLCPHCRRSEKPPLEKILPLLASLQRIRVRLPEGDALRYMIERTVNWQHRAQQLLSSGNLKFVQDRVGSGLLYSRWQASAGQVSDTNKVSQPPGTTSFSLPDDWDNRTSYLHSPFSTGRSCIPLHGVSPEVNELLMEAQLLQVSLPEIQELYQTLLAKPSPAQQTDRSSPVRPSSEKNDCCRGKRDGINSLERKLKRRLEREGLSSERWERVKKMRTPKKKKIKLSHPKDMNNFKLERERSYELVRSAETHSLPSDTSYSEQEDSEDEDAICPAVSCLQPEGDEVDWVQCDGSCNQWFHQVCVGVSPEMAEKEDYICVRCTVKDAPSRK
# Assay: Primary screen for KDM5B Histone Demethylases FDH-coupled qHTS; further: nearly all actives have a fitted effect of over 70% in size
# Settings: FDH-coupled NADH fluorescence (FDH is formaldehyde dehydrogenase); series mostly up to 57.7 µM
# Procedure, shortened: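 Measured: NADH fluorescence change, 30 min, RT. System: KDM5BΔAP 200 nM final, H3K4me3 peptide, α-KG, Fe(II), ascorbate, NAD⁺ plus FDH, pH 7.5 HEPES. Compounds: titrated, 10 min pre-incubation with enzyme.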
# Potency means the concentration at half of the fitted maximal effect; tags describe the fitted curve by direction and shape.
row,SMILES,Potency
1,O=C(Nc1cccc(C(F)(F)F)c1)c1ccc2c(c1)nnn2C1CCCC1,"inconclusive: 44.7 µM [inhibitor, single point]"
2,COCc1cc(NCc2cccnc2N(C)Cc2ccccc2)ncn1,"inconclusive: 17.8 µM [inhibitor, partial curve]"
3,S=c1[nH]nc(-c2ccncc2)n1/N=C/c1ccccc1Cl,"inconclusive: 1.78 µM [inhibitor, full curve, poor fit]"
4,CC(C)c1ccc(/C=C2\SC(N3CCOCC3)=NC2=O)cc1,"inconclusive: 25.1 µM [inhibitor, single point]"
5,O=c1[nH]c(N2CCOCC2)nc2c1CCN(Cc1cc(Br)ccc1F)CC2,inactive
6,COc1ccc(/C=C/C(=O)NC2CCN(Cc3ccccc3)CC2)cc1OC,"inconclusive: 39.8 µM [inhibitor, single point]"
7,COc1cccc(-c2ccc(=O)n(CC(=O)Nc3cc(Cl)c(OC)cc3OC)n2)c1,inactive
8,O=S(=O)(c1ccc(Br)cc1)c1nc(-c2ccccc2)oc1N1CCOCC1,"inconclusive: 35.5 µM [inhibitor, single point]"
9,COc1ccccc1C1CC(=O)NC(C)=C1C(=O)OC1CCCCCC1 (stereo not drawn),inactive
10,COc1ccc(Nc2cc(-c3cccs3)nc3c(C)noc23)cc1OC,"inconclusive: 31.6 µM [inhibitor, single point]"
11,COC(=O)c1cc2oc(C)cc2n1Cc1ccc(Br)cc1F,"inconclusive: 31.6 µM [inhibitor, partial curve, poor fit]"
12,COC(=O)c1ccc(NC(=O)CSc2ccc(-c3sc(-c4ccccc4)nc3C)nn2)cc1,"inconclusive: 2.24 µM [inhibitor, full curve, poor fit]"
13,CCc1ccc(-n2c(=O)c3cccnc3n2CC(=O)NCc2ccccc2)cc1,"inconclusive: 28.2 µM [inhibitor, partial curve, poor fit]"
14,CNC(=O)CN1CCCC(N2CCN(c3cccc(C(F)(F)F)c3)CC2)C1 (stereo not drawn),"inconclusive: 3.16 µM [inhibitor, full curve]"
15,O=C(NCc1cccnc1)c1nn(-c2ccc(Cl)cc2)nc1CO,"inconclusive: 2.24 µM [inhibitor, partial curve, poor fit]"
16,O=C(OCc1cc(-c2ccco2)on1)c1cc2c(F)cccc2s1,"inconclusive: 25.1 µM [inhibitor, single point]"
17,COc1ccc(C2CC(=O)N3CN(C4CCCCC4)CSC3=C2C#N)c(OC)c1 (stereo not drawn),"inconclusive: 2.51 µM [inhibitor, full curve, poor fit]"
18,CC(NC(=O)C(C)(C)C)C(=O)N1CCN(c2ccccn2)CC1 (stereo not drawn),active: 28.2 µM
19,Cc1cccc2c(C(=O)O)cc(-c3cccs3)nc12,"inconclusive: 28.2 µM [inhibitor, partial curve, poor fit]"
20,CCCC(=O)N1CCc2cn(C)c3cccc(c23)C1,"inconclusive: 28.2 µM [inhibitor, single point]"
21,CN1C(=O)N(C)c2cccc3cccc1c23,"inconclusive: 39.8 µM [inhibitor, single point]"

row,SMILES,Potency
1,COC(=O)C(C)Sc1ccc2nnc(CCNS(=O)(=O)c3ccc(C)cc3)n2n1 (stereo not drawn),"inconclusive: 35.5 µM [inhibitor, single point]"
2,O=c1cc(-c2ccccc2)sc2c1ccc1ccccc12,inactive
3,CN1CCCCCC(O)c2cc(C(=O)NCCc3ccncc3)ccc21 (stereo not drawn),"inconclusive: 28.2 µM [inhibitor, partial curve, poor fit]"
4,Cc1ncc(CO)c2c1Oc1nc(-c3ccccc3Cl)nc(SCc3ccccc3F)c1C2,"inconclusive: 25.1 µM [inhibitor, partial curve, poor fit]"
5,COCCCNC(=O)Cn1cnc2sc(C)c(S(=O)(=O)N3CCC(C)CC3)c2c1=O,"inconclusive: 31.6 µM [inhibitor, partial curve, poor fit]"
6,Oc1ccc(Nc2ccnc(N3CC4CCC(C3)N4CC(F)(F)F)n2)cc1,"inconclusive: 44.7 µM [inhibitor, partial curve, poor fit]"
7,CN(Cc1ccc(F)cc1)c1ccc2ncc(Nc3cccc(N[S+](C)(=O)[O-])c3)n2n1,"inconclusive: 20 µM [inhibitor, partial curve, poor fit]"
8,CS(=O)(=O)N1CCN(C(=O)CC[C@H]2NC(=O)c3ccccc3NC2=O)CC1,inactive
9,CC(O)CNS(=O)(=O)c1ccc(-c2ccc(S(=O)(=O)NCC(C)O)cc2)cc1 (stereo not drawn),inactive
10,CC(C)c1noc(C(C)Nc2ccc3oc(C4CC4)nc3c2)n1 (stereo not drawn),"inconclusive: 28.2 µM [inhibitor, partial curve, poor fit]"
11,Cc1ccc(C)c(CN2CCN(c3nc4c(c(=O)[nH]c(=O)n4C)n3Cc3ccccc3F)CC2)c1,inactive
12,COc1ccc(-c2cc3nc4c(c(=O)n3[nH]2)CN(C(=O)c2n[nH]c3c2CCCCCC3)CC4)cc1,"inconclusive: 31.6 µM [inhibitor, partial curve, poor fit]"
13,Cc1nc2ccccn2c(=O)c1NC(=O)c1ccc(F)c(F)c1,"inconclusive: 28.2 µM [inhibitor, single point]"
14,Cc1cccc(NC(=O)C2CCCN2S(=O)(=O)c2ccc3nc(-c4ccccc4)[nH]c3c2)c1 (stereo not drawn),"inconclusive: 39.8 µM [inhibitor, single point]"
15,Cc1ccc2c(c1)c1c(c(=O)n(-c3ccccc3)c(=O)n1CC(=O)NCC1CCCO1)n2C (stereo not drawn),"inconclusive: 2.51 µM [inhibitor, partial curve, poor fit]"
16,CCc1nc(CC)n2ccn(Cc3ccccn3)c(=O)c12,"inconclusive: 15.8 µM [inhibitor, partial curve]"
17,O=C1NC2(CCN(Cc3ccsc3)CC2)COc2ccccc21,"inconclusive: 25.1 µM [inhibitor, partial curve, poor fit]"
18,CN(C)c1cccc(C(=O)Nc2ncc(-c3cccc(F)c3)c3c2OCC3)c1,"inconclusive: 31.6 µM [inhibitor, single point]"
19,Cc1ccc(S(=O)(=O)c2nnn3c2nc(NCc2ccc4c(c2)OCO4)c2sccc23)cc1C,"inconclusive: 1.26 µM [inhibitor, full curve, poor fit]"
20,CCCCCCOc1ccc(C(=O)CCN(C)C)cc1,"inconclusive: 17.8 µM [inhibitor, partial curve, poor fit]"
21,Cc1cccc(-c2nc(CCN(C)S(=O)(=O)c3cccc4nsnc34)no2)c1,inactive

row,SMILES,Potency
1,CC(C)=CCn1c(-c2cc(C)oc2C)cn2cc(C(=O)N(C)CC(C)C)nc2c1=O,"inconclusive: 12.6 µM [inhibitor, partial curve]"
2,COc1ccc(C(C)=O)cc1COC(=O)Cc1cc(OC)c(OC)c(OC)c1,"inconclusive: 10 µM [inhibitor, partial curve, poor fit]"
3,O=C(NCc1ccccc1)c1ccc(NC(=O)N2CC3CCCN3c3ccccc32)cc1 (stereo not drawn),"inconclusive: 15.8 µM [inhibitor, partial curve, poor fit]"
4,COc1ccc(C2=NN3C(C2)c2cccc(OC)c2OC32CCN(C(C)=O)CC2)c(OC)c1 (stereo not drawn),"inconclusive: 35.5 µM [inhibitor, single point]"
5,COc1ccc(N(C)C(=O)c2c(C)oc3c2CN(Cc2ccc(F)cc2)CC3)cc1,"inconclusive: 39.8 µM [inhibitor, single point]"
6,CCOc1ccc(CN2CCNC(=O)C2CC(=O)N(C)CC2CCOCC2)cc1 (stereo not drawn),"inconclusive: 25.1 µM [inhibitor, single point]"
7,COCC1CN(Cc2ccccc2C(F)(F)F)CC12CCNCC2 (stereo not drawn),"inconclusive: 17.8 µM [inhibitor, partial curve, poor fit]"
8,COCCN1CC(CO)C2(CCN(Cc3cc(F)c(F)cc3F)CC2)C1 (stereo not drawn),"inconclusive: 28.2 µM [inhibitor, single point]"
9,Cc1oc2cc(OCCN3CCN(CCO)CC3)ccc2c(=O)c1-c1ccc(Br)cc1,"inconclusive: 35.5 µM [inhibitor, single point]"
10,CCOc1cc(C(=O)Nc2ccc(-c3cn4cccnc4n3)cc2)cc(OCC)c1OCC,"inconclusive: 17.8 µM [inhibitor, partial curve, poor fit]"
11,CCCCc1ccc(NC(=O)CN2C(=O)NC(c3ccc(Cl)cc3)C3=C2COC3=O)cc1 (stereo not drawn),inactive
12,COC[C@@H]1CN(c2ncccn2)C[C@H]1C(=O)N(C)Cc1cn(C)nc1C,active: 14.1 µM
13,CCC(CC)NC(=O)C1(CCO)CCN(c2ncccn2)C1 (stereo not drawn),"inconclusive: 25.1 µM [inhibitor, partial curve, poor fit]"
14,COc1ccc(NC(=O)c2cc3c(s2)-c2c(C)cccc2OC3)cc1Cl,"inconclusive: 17.8 µM [inhibitor, partial curve, poor fit]"
15,CCCCNC(=S)N(C)N,inactive
16,CCCN(Cc1ccc(S(=O)(=O)NC)cc1)Cc1ccccc1OC,"inconclusive: 28.2 µM [inhibitor, single point]"
17,N#Cc1ccc(COc2ccc(I)cc2)cc1,inactive
18,Clc1cccc(Cn2c(-c3cncs3)nc3ccccc32)c1,inactive
19,Cc1ccn2c(Nc3ccc4c(c3)OCCO4)c(-c3ccc(C)o3)nc2c1,"inconclusive: 28.2 µM [inhibitor, partial curve, poor fit]"
20,COC(=O)[C@@H]1Cc2c([nH]c3ccccc23)[C@H]2C[C@@H](NCCCn3ccnc3)C[C@@H](c3ccc(F)cc3)N21,active: 12.6 µM
21,Cc1c(C(=O)NCc2ccccc2Cl)sc2ncnc(N(C)C3CCCCC3)c12,"inconclusive: 31.6 µM [inhibitor, partial curve, poor fit]"
